Results reported in article PMC5397059, “Design, synthesis and structure-activity relationship study of wollamide B; a new potential anti TB agent” (PLoS ONE, 2017).
Non-standard residues stand in square brackets, D forms with d. Residues, ends and D or L forms follow the SMILES beside them. dPhe(4-Cl) = N[C@H](Cc1ccc(Cl)cc1)C(=O)O; dOrn = NCCC[C@@H](N)C(=O)O

test system: HepG2 cells; details: read-out: IC50 against Hep2G Cells; analogues

Q: How did the IC50 turn out when `CC(C)C[C@H]1NC(=O)[C@@H](Cc2ccc(Cl)cc2)NC(=O)[C@H](Cc2c[nH]c3ccccc23)NC(=O)[C@@H](CCCN)NC(=O)[C@H](CC(N)=O)NC(=O)[C@H](C(C)C)NC1=O` [Compound 17c] (cyclo(N[dOrn]W[dPhe(4-Cl)][dL]V)) was run?
A: > 100 µM

Q: How did the IC50 turn out when `CC(C)C[C@@H]1NC(=O)[C@H](Cc2c[nH]c3ccccc23)NC(=O)[C@@H](CCCN)NC(=O)[C@@H](CCCN)NC(=O)[C@H](C(C)C)NC(=O)[C@@H](CC(C)C)NC1=O` [Compound 9c] (cyclo(L[dL]V[dOrn][dOrn]W)) was run?
A: > 100 µM

Q: With `CC(C)C[C@@H]1NC(=O)[C@@H](Cc2ccc(Cl)cc2)NC(=O)[C@@H](CCCN)NC(=O)[C@H](CC(N)=O)NC(=O)[C@H](C(C)C)NC(=O)[C@@H](CC(C)C)NC1=O` [Compound 14c] (cyclo(L[dL]VN[dOrn][dPhe(4-Cl)])) as the compound, how does the IC50 read?
A: > 100 µM

Q: For `CC(C)C[C@@H]1NC(=O)[C@H](C)NC(=O)[C@@H](CCCN)NC(=O)[C@H](CC(N)=O)NC(=O)[C@H](C(C)C)NC(=O)[C@@H](CC(C)C)NC1=O` [Compound 3c] (cyclo(AL[dL]VN[dOrn])), which IC50 is on record?
A: > 100 µM

Q: For `CC(C)C[C@H]1NC(=O)[C@H](C)NC(=O)[C@H](Cc2c[nH]c3ccccc23)NC(=O)[C@@H](CCCN)NC(=O)[C@H](CC(N)=O)NC(=O)[C@H](C(C)C)NC1=O` [Compound 2c] (cyclo(A[dL]VN[dOrn]W)), which IC50 is on record?
A: > 100 µM

Q: For `CC(C)C[C@@H]1NC(=O)[C@H](Cc2c[nH]c3ccccc23)NC(=O)[C@@H](CCCN)NC(=O)[C@H](C)NC(=O)[C@H](C(C)C)NC(=O)[C@@H](CC(C)C)NC1=O` [Compound 4c] (cyclo(A[dOrn]WL[dL]V)), which IC50 is on record?
A: > 100 µM

Q: Which IC50 does the source give for `CC[C@H](C)[C@@H]1NC(=O)[C@@H](Cc2ccc(Cl)cc2)NC(=O)[C@H](CC(C)C)NC(=O)[C@H](Cc2c[nH]c3ccccc23)NC(=O)[C@@H](CCCN)NC(=O)[C@@H](CCCN)NC1=O` [Compound 18c] (cyclo(I[dOrn][dOrn]WL[dPhe(4-Cl)])) here?
A: > 100 µM

Q: For `CC[C@H](C)[C@@H]1NC(=O)[C@@H](CC(C)C)NC(=O)[C@H](CC(C)C)NC(=O)[C@H](Cc2c[nH]c3ccccc23)NC(=O)[C@@H](CCCN)NC(=O)[C@H](CO)NC1=O` [Compound 10c] (cyclo(IS[dOrn]WL[dL])), which IC50 is on record?
A: > 100 µM

Q: With `CC[C@H](C)[C@@H]1NC(=O)[C@@H](CC(C)C)NC(=O)[C@H](CC(C)C)NC(=O)[C@H](Cc2c[nH]c3ccccc23)NC(=O)[C@@H](CCCN)NC(=O)[C@H](CC(N)=O)NC1=O` [Compound 7c] (cyclo(IN[dOrn]WL[dL])) as the compound, how does the IC50 read?
A: 50 µM

Q: How did the IC50 turn out when `CC(C)C[C@@H]1NC(=O)[C@H](Cc2c[nH]c3ccccc23)NC(=O)[C@@H](CCCN)NC(=O)[C@H](CC(N)=O)NC(=O)[C@H](C)NC(=O)[C@@H](CC(C)C)NC1=O` [Compound 5c] (cyclo(AN[dOrn]WL[dL])) was run?
A: > 100 µM

Q: Which IC50 does the source give for `CC(C)C[C@@H]1NC(=O)[C@H](Cc2c[nH]c3ccccc23)NC(=O)[C@@H](CCCN)NC(=O)[C@H](CC(N)=O)NC(=O)[C@H](C(C)C)NC(=O)[C@@H](Cc2ccc(Cl)cc2)NC1=O` [Compound 16c] (cyclo(L[dPhe(4-Cl)]VN[dOrn]W)) here?
A: 60 µM

Q: With `CC[C@H](C)[C@@H]1NC(=O)[C@H](CC(C)C)NC(=O)[C@H](Cc2c[nH]c3ccccc23)NC(=O)[C@@H](CCCN)NC(=O)[C@H](CC(N)=O)NC(=O)[C@H](C(C)C)NC1=O` [Compound 20c] (cyclo(IVN[dOrn]WL)) as the compound, how does the IC50 read?
A: > 100 µM

Q: For `CC(C)C[C@@H]1NC(=O)[C@@H](CC(C)C)NC(=O)[C@@H](CCCN)NC(=O)[C@H](CC(N)=O)NC(=O)[C@H](C(C)C)NC(=O)[C@H](Cc2c[nH]c3ccccc23)NC1=O` [Compound 21c] (cyclo(LWVN[dOrn][dL])), which IC50 is on record?
A: > 100 µM

Q: For `CC[C@H](C)[C@@H]1NC(=O)[C@H](Cc2c[nH]c3ccccc23)NC(=O)[C@@H](CCCN)NC(=O)[C@H](CC(N)=O)NC(=O)[C@H](C(C)C)NC(=O)[C@@H](CC(C)C)NC1=O` [Compound 19c] (cyclo(I[dL]VN[dOrn]W)), which IC50 is on record?
A: > 100 µM

Q: How did the IC50 turn out when `CC[C@H](C)[C@@H]1NC(=O)[C@H]([C@@H](C)CC)NC(=O)[C@@H](CC(C)C)NC(=O)[C@H](CC(C)C)NC(=O)[C@H](Cc2c[nH]c3ccccc23)NC(=O)[C@@H](CCCN)NC1=O` [Compound 12c] (cyclo(II[dOrn]WL[dL])) was run?
A: > 100 µM

Q: Which IC50 does the source give for `CC(C)C[C@@H]1NC(=O)[C@H](Cc2c[nH]c3ccccc23)NC(=O)[C@@H](CCCN)NC(=O)[C@H](CC(N)=O)NC(=O)[C@H](C(C)C)NC(=O)[C@@H](C)NC1=O` [Compound 6c] (cyclo(L[dA]VN[dOrn]W)) here?
A: > 100 µM

same assay, conditions: up to a concentration of 50 μM

Q: `CC(C)C[C@@H]1NC(=O)[C@H](Cc2c[nH]c3ccccc23)NC(=O)[C@@H](CCCN)NC(=O)[C@H](CC(N)=O)NC(=O)[C@H](C(C)C)NC(=O)[C@@H](CC(C)C)NC1=O` [Compound 1c, wollamide B] (cyclo([dOrn]WL[dL]VN)) was tested. Which “sign of toxicity against HepG2 cells” value did it give?
A: did not show sign of toxicity
